# Results are given in words; binding and its absence hold for the method and conditions named. In cells and extracts the contact can be indirect. Some binding calls cover weakened binding; strength is not graded here. For some assays here: Sequences can lack the tags named with a protein.
# Sequences of proteins named here, by UniProt entry; tags and fusion partners are left off.
# UniProt P63208: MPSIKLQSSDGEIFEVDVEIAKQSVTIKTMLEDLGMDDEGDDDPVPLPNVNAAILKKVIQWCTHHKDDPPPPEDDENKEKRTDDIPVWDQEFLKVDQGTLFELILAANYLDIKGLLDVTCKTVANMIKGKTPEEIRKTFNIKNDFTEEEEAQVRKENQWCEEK
# T1: FBXO28-Flag-Myc (pCMV6-FBXO28-Myc-Flag) (UniProt Q9NVF7)
# T1 sequence: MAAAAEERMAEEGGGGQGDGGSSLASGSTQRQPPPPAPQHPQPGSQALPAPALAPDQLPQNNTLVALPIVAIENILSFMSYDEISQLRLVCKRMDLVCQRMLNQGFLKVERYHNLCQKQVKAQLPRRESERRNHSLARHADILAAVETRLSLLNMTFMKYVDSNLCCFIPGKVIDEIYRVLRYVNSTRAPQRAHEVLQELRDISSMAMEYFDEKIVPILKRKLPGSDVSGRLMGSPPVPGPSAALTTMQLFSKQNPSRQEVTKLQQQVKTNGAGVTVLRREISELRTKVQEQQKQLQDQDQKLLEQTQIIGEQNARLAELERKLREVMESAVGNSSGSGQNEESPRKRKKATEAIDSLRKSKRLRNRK
# T2: FBXO28 (endogenous, Huh7 cells) (human (endogenous in Huh7)) (UniProt Q9NVF7)
# T2 sequence: T1 sequence
# B1: SNAI2-Myc (pcDNA3.1-SNAI2-Myc) (protein, UniProt O43623 1-268)
# chain: MPRSFLVKKHFNASKKPNYSELDTHTVIISPYLYESYSMPVIPQPEILSSGAYSPITVWTTAAPFHAQLPNGLSPLSGYSSSLGRVSPPPPSDTSSKDHSGSESPISDEEERLQSKLSDPHAIEAEKFQCNLCNKTYSTFSGLAKHKQLHCDAQSRKSFSCKYCDKEYVSLGALKMHIRTHTLPCVCKICGKAFSRPWLLQGHIRTHTGEKPFSCPHCNRAFADRSNLRAHLQTHSDVKKYQCKNCSKTFSRMSLLHKHEESGCCVAH
# B2: SNAI2 (endogenous, Huh7 cells) (protein, UniProt O43623 1-268)
# chain: B1 chain
# B3: SNAI2-HA (pcDNA4.0-SNAI2-HA) (protein, UniProt O43623 1-268)
# chain: B1 chain
# Columns and labels:
# [1] = target: T1, FBXO28-Flag-Myc (pCMV6-FBXO28-Myc-Flag); assay: co-IP; HEK293T cells expressing FBXO28 or FBXO28ΔF; CULLIN1 and SKP1 detected in the immunoprecipitate by IB (Supplementary Fig. S5B, S5E)
# [2] = target: T1, FBXO28-Flag-Myc (pCMV6-FBXO28-Myc-Flag); assay: co-IP; Huh7 and HCCLM3 cells co-expressing FBXO28-Flag and SNAI2-Myc, IP by anti-Flag antibody, MG132 20 uM 6 h before harvest, Triton X-100 buffer, IB
# [3] = target: T2, FBXO28 (endogenous, Huh7 cells) (human (endogenous in Huh7)); assay: co-IP; untransfected Huh7 cells, IP with FBXO28 antibody or normal rabbit IgG on Protein A/G magnetic beads, IB; both proteins endogenous
# [4] = target: T1, FBXO28-Flag-Myc (pCMV6-FBXO28-Myc-Flag); assay: co-IP; HEK293T cells transfected with FBXO28 and SNAI2 plasmids (wild type or mutants) for 48 h, MG132 20 uM 6 h before harvest, Triton X-100 buffer, IP and IB
# [5] = target: T1, FBXO28-Flag-Myc (pCMV6-FBXO28-Myc-Flag); assay: condition: only cells treated with PKA inhibitors (H89 or KT5720); co-IP; HEK293T cells transfected with FBXO28 and SNAI2 plasmids for 24 h, then treated with the PKA inhibitor H89 (0.2 uM, 24 h; DMSO as control) or KT5720 (Supplementary Fig. S6B), IP and IB
molecule,measurement,setting,value
SKP1 (from UniProt P63208 1-163),binding,[1],binds
B1,binding,[2],binds
B2,binding,[3],binds
B3,binding,[4],binds
same,binding,[5],no binding

# From paper PMC10516749
